Results on one molecule are retold here after US20210386788A1, “ER TUNABLE PROTEIN REGULATION” (Obsidian Therapeutics, Inc., priority 2018, published 2021).

The subject of the test is T cells. Nature of the test: Membrane bound IL15-IL15Ra expression on transduced T cells (FACS, anti IL15 and anti IL15Ra). It counts as cell-based. The following applies: for % IL15-IL15Ra positive cells, 1 μM BZD: 1 μM BZD 24 hours; for % IL15-IL15Ra positive cells, DMSO: DMSO 24 hours. Here is the method: T cells were activated with CD3/CD28 beads for 24 hours, transduced with lentivirus corresponding to OT-001727, using either 2 μl or 10 μl of virus. Cells were then expanded for 6 days. T cells were then treated with 1 μM BZD or DMSO for 24 hours.
Expression of membrane bound IL15-IL15Ra were analyzed by FACS using anti IL15 and anti IL15Ra antibodies and the percentage of cells that were positive for IL15 and IL15Ra cells was calculated (Table 17).

B1: OT-001727: ER DD regulated membrane bound IL15-IL15Ra construct (protein)
chain: MALPVTALLLPLALLLHAARPGSSLALSLTADQMVSALLDAEPPILYSEYDPTRPFSEASMMGLLTNLADRELVHMINWAKRVPGFVDLALHDQVHLLECAWMEILMIGLVWRSMEHPGKLLFAPNLLLDRNQGKCVEGGVEIFDMLLATSSRFRMMNLQGEEFVCLKSIILLNSGVYTFLSSTLKSLEEKDHIHRVLDKITDTLIHLMAKAGLTLQQQHQRLAQLLLILSHIRHMSSKRMEHLYSMKCKNVVPLSDLLLEMLDAHRLGS[in this place about 120 residues]SGGGSGGGGSGGGGSGGGGSGGGSLQITCPPPMSVEHADIWVKSYSLYSRERYICNSGFKRKAGTSSLTECVLNKATNVAHWTTPSLKCIRDPALVHQRPAPPSTVTTAGVTPQPESLSPSGKEPAASSPSSNNTAATTAAIVPGSQLMPSKSPSTGTTEISSHESSHGTPSQTTAKNWELTASASHQPPGVYPQGHSDTTVAISTSTVLLCGLSAVSLLACYLKSRQTPPLASVEMEAMEALPVTWGTSSRDEDLENCSHHL
On to B1, for which, for the setting “2 μl virus”, the “Stabilization Ratio” value came to 4; the “% IL15-IL15Ra positive cells, 1 μM BZD” value was found to be 65%; the “% IL15-IL15Ra positive cells, DMSO” value was 16%. Besides, under “10 μl virus”, the “Stabilization Ratio” value is on record as 3; the “% IL15-IL15Ra positive cells, 1 μM BZD” value worked out at 79%; the “% IL15-IL15Ra positive cells, DMSO” value worked out at 27%. Moreover, under “BZD treatment versus DMSO”, the “ligand dependent expression of IL15-IL15Ra (in words)” value is on record as “strong ligand dependent expression of IL15-IL15Ra”.
